# Test results from the BET-seq Pho4 binding data (Le et al. 2018).
# The list shows a part of the results. The energies were worked out here from pooled read counts, against the library average; single values are noisy.
# Biological target: T1, Pho4 (S. cerevisiae) (UniProt P07270)
# T1 sequence: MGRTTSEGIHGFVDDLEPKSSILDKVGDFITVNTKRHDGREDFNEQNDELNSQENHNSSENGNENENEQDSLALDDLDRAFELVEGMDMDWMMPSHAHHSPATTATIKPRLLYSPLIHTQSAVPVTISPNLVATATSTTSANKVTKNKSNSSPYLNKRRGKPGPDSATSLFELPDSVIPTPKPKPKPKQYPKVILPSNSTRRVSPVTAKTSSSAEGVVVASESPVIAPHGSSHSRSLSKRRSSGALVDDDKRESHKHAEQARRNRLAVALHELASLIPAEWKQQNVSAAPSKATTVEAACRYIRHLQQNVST
# Assay: relative binding free energy (BET-seq); higher = weaker binding
# Conditions: reference: library average
row,Sequence,relative binding free energy [kcal/mol]
1,CTTATCACGTGGGTAT,0.01
2,ATTACCACGTGTGGTA,0.03
3,TCTCTCACGTGTTAGG,0.24
4,TTATGCACGTGTGTCT,0.12
5,GAGGACACGTGTTGAG,-0.01
6,CTGTTCACGTGCTGGT,0.27
7,AAAAGCACGTGAGTCG,0.33
8,GGTCTCACGTGATTTT,0.38
9,ATGTTCACGTGGGGCG,0.16
10,AGGTCCACGTGATAGG,-0.02
11,AGTGACACGTGGTGTG,-0.11
12,GAGGTCACGTGCAGGG,0.18
13,TTGTGCACGTGTAGGG,0.11
14,CTAAGCACGTGGGCGT,-0.12
15,TAGTGCACGTGTACGT,-0.03
16,AGAGTCACGTGGGGCG,0.02
17,AGGAACACGTGCAGTG,0.07
18,TTCCTCACGTGTTGCT,0.46
19,GAGCTCACGTGTGGGA,0.31
20,GGGTACACGTGGCAGA,0.02
21,GGACGCACGTGGGGAA,-0.13
22,TTTGGCACGTGTTGTC,0.02
23,CAGGGCACGTGGAGGC,-0.05
24,TTCTTCACGTGCGGTG,0.28
25,TTTAGCACGTGGTTTG,-0.08
26,ACATACACGTGGTGTT,0

row,Sequence,relative binding free energy [kcal/mol]
1,ACAGTCACGTGGGCGG,-0.09
2,GTTGACACGTGTCGTA,-0.05
3,AAGCTCACGTGTAGTT,0.23
4,TTTTACACGTGTAATG,0.04
5,GGTGACACGTGTATGA,0.09
6,TTAGCCACGTGTTGGG,-0.08
7,TTTAGCACGTGTGAAC,0.08
8,CAATTCACGTGAGGTG,0.55
9,CTTGACACGTGGAGTT,-0.04
10,GGGAGCACGTGTTTCG,-0.03
11,GGAGTCACGTGTTGTG,0.14
12,GGATACACGTGAGGGA,0.29
13,GGATACACGTGTTAGA,0.15
14,TCGTGCACGTGGAGTG,0.02
15,CGGGTCACGTGGTCGT,-0.06
16,GGATCCACGTGATTGG,0.16
17,GCGCGCACGTGGGGTT,-0.29
18,AGTGACACGTGAAATT,0.3
19,TTAGTCACGTGGGATA,0.08
20,AATTGCACGTGCGTGT,-0.05
21,TAGGGCACGTGCGGTT,-0.09
22,ATTGCCACGTGCGGGT,-0.18
23,GGGGTCACGTGTTGTA,0.13
24,TGAGACACGTGGTCGG,0.03
25,GGGAGCACGTGAGTAA,0.22
26,GTGGGCACGTGCGTGC,-0.08

row,Sequence,relative binding free energy [kcal/mol]
1,TTTGTCACGTGACATA,0.26
2,ATGCTCACGTGGATTT,0.15
3,ACATGCACGTGAGGTG,0.04
4,ATTGGCACGTGAAATT,0.16
5,GTATACACGTGTGTTG,0.05
6,TAACACACGTGTTTAG,0.39
7,ATCGACACGTGTTTGG,0.03
8,TGATGCACGTGAGGAT,0.3
9,GAGATCACGTGAGGGT,0.33
10,AGTCACACGTGATGGT,0.24
11,TCGGTCACGTGAGATT,0.27
12,CTAGGCACGTGGCATG,-0.22
13,GAGGTCACGTGTGTCT,0.26
14,TGTGGCACGTGCTTCT,-0.23
15,TAGGCCACGTGTTTGA,0.03
16,TAGCGCACGTGTGGTA,-0.01
17,TAGGGCACGTGGTTGT,-0.14
18,TTAGGCACGTGCTGGT,-0.28
19,GTATACACGTGAAGTG,0.22
20,GTTTGCACGTGAATTG,0.24
21,ACTGGCACGTGTTAGG,-0.12
22,CGTTTCACGTGTTAGA,0.18
23,GGCGGCACGTGTAGGC,-0.01
24,TGCATCACGTGTATGG,0.16
25,GTGTCCACGTGAGGGA,0.16
26,TAGTTCACGTGGCTTT,0.25

row,Sequence,relative binding free energy [kcal/mol]
1,TAGTTCACGTGTAGAC,0.35
2,GATGGCACGTGGAGGG,-0.02
3,TTTTACACGTGTGGTA,0.2
4,AGCTGCACGTGGGGGA,-0.1
5,GGTGACACGTGGTTAC,0.12
6,TCTATCACGTGTGTAG,0.24
7,GGTCGCACGTGGATGA,-0.04
8,GGCCGCACGTGTTGGT,0.01
9,ATGATCACGTGTGAAT,0.21
10,GTAATCACGTGGCGGG,0.21
11,GGTTGCACGTGCTAGG,-0.08
12,TTTAGCACGTGTCATT,-0.13
13,TTTGCCACGTGATATG,0.03
14,AGTACCACGTGGGGGA,-0.14
15,AGTTCCACGTGGTGCT,0.02
16,GGGTACACGTGTCTGG,0.08
17,GCTAGCACGTGTGTGG,0.09
18,TAATTCACGTGTTAGA,0.2
19,GCGTACACGTGTGTGT,0.08
20,CATTTCACGTGTGCTT,0.36
21,GGGTACACGTGTCGAA,0.16
22,CGGGGCACGTGTGGGG,-0.09
23,AGGGGCACGTGTGTAG,-0.13
24,AGCGGCACGTGGCGAG,-0.13
25,GGAAGCACGTGTAAGT,-0.11
26,TATGGCACGTGGTGAA,-0.09

row,Sequence,relative binding free energy [kcal/mol]
1,CAGAGCACGTGAGGTT,0.26
2,TTGGTCACGTGGTAAA,0.12
3,ATTTGCACGTGTTGAC,0.09
4,TAGTTCACGTGCGTAA,0.31
5,TGTGCCACGTGTCGGT,-0.08
6,CGGTTCACGTGTTGGC,0.4
7,CTTGACACGTGTGGTG,0.08
8,GTTTGCACGTGTGGGA,0.17
9,GCAGTCACGTGGGTCG,-0.06
10,GTGCTCACGTGTTTCG,0.36
11,ACTTTCACGTGAGGGG,0.39
12,CTGGCCACGTGTGTGT,-0.03
13,GTGTTCACGTGAGGCT,0.33
14,ACTTTCACGTGGGGTC,0.12
15,CTAAGCACGTGGGGAT,-0.24
16,AAAGGCACGTGTAATT,0
17,GGAAGCACGTGGGTTT,-0.17
18,GGGGGCACGTGTCTCG,-0.2
19,TTGGCCACGTGGGGTA,-0.23
20,AGTAACACGTGGCAGT,-0.06
21,TTGGTCACGTGGAGCC,0.14
22,GTTAACACGTGTGGCG,0.11
23,ATGGTCACGTGATTTC,0.11
24,TGTGGCACGTGTGTCG,-0.14
25,GTGTCCACGTGGGGTG,-0.02
26,TCTGGCACGTGTGTGG,-0.09

row,Sequence,relative binding free energy [kcal/mol]
1,TGGCACACGTGGGGGA,-0.11
2,GCTGGCACGTGTGGTA,-0.07
3,TTGCGCACGTGTGTAA,-0.05
4,GTGTTCACGTGGCCGG,0.16
5,TTATGCACGTGCGTTT,-0.11
6,ATTTTCACGTGCGGAT,0.29
7,ATGTGCACGTGGCTCA,-0.02
8,TTGTACACGTGTTTAG,0.17
9,ATGTTCACGTGCGCGT,0.28
10,CTTCGCACGTGTTTGG,-0.1
11,GGACGCACGTGAAGTT,0.25
12,AATTGCACGTGCTGTT,0
13,GGGAACACGTGTCGTA,0.19
14,GTTTGCACGTGTAGTA,0.13
15,TGTGCCACGTGTTTTA,-0.04
16,TTTGCCACGTGAGCGG,0.06
17,TTTAGCACGTGAATAT,0.26
18,GGTGTCACGTGTCTGC,0
19,TAGTACACGTGTTTAT,-0.01
20,ATCTACACGTGGGTGC,0.13
21,TAATGCACGTGGTATG,-0.12
22,GCGCTCACGTGGTGGT,0.14
23,GGCGCCACGTGGTGAG,-0.06
24,GTTGTCACGTGGTTTT,0.13
25,GTGGGCACGTGACGAT,0.14
26,GTTTGCACGTGGCCGT,-0.01

row,Sequence,relative binding free energy [kcal/mol]
1,GGACTCACGTGTGTTG,0.32
2,TGGCACACGTGTAATT,0.28
3,TGATTCACGTGGGATA,0.21
4,CTCGGCACGTGTAGTG,-0.05
5,GGGATCACGTGTATGT,0.2
6,CTCTTCACGTGGGGTG,0.14
7,CGCAGCACGTGGAAGG,0.08
8,TAGGACACGTGTAAGA,0.36
9,GGTAGCACGTGGTATT,-0.15
10,TTATACACGTGTGAAA,0.03
11,ACTTGCACGTGGGTGA,-0.06
12,ATAAACACGTGTAGGT,0
13,GGATGCACGTGTTGTG,0.02
14,TCGTGCACGTGCGGTT,0.05
15,CTGTGCACGTGGGTTC,-0.17
16,GGGGGCACGTGATAGC,0.13
17,ATTCACACGTGTGTGT,0.07
18,TTCTTCACGTGCGTTA,0.15
19,TGTATCACGTGCTTAG,-0.08
20,GTGGTCACGTGATCGA,0.2
21,GTGCTCACGTGGGAGT,0.18
22,TGGAACACGTGATTTT,0.22
23,ATTCTCACGTGTTTTT,0.15
24,TGAATCACGTGAGGAA,0.4
25,GTTTACACGTGTGAGT,0.2
26,AGTTGCACGTGTAGAA,-0.01

row,Sequence,relative binding free energy [kcal/mol]
1,CGTGACACGTGGGGGG,-0.19
2,AACGTCACGTGGTAGT,0.22
3,TGATTCACGTGATGTA,0.32
4,CCGTTCACGTGGTATT,0.29
5,TGGTTCACGTGGTTAG,0.26
6,CGTTGCACGTGTTAGG,0.04
7,TTGGTCACGTGCTGTT,-0.04
8,AATGGCACGTGGTGCA,-0.16
9,GTTGTCACGTGATGAC,0.29
10,CGGCGCACGTGGGGGT,-0.18
11,CGCTGCACGTGGTTGG,0
12,GGGCGCACGTGTTTGT,-0.04
13,CGGTTCACGTGCAGTG,0.33
14,GATTGCACGTGGATTT,0.07
15,GATTGCACGTGGGTCG,-0.16
16,ATAGTCACGTGTATGT,0.05
17,GTGATCACGTGAGATT,0.35
18,TGATTCACGTGGTGTT,0.2
19,AGGGGCACGTGCACAG,-0.07
20,AAGGACACGTGAGGGA,0.29
21,TGGGTCACGTGGTCTT,0.01
22,TGTCGCACGTGGACGG,0.07
23,TGCTTCACGTGCTTTT,0.24
24,CATGACACGTGTGTGA,0.14
25,AATTTCACGTGAATGT,0.34
26,ATTACCACGTGTGTGA,-0.02

row,Sequence,relative binding free energy [kcal/mol]
1,ATATGCACGTGACGTG,0.01
2,GTGAACACGTGGGTGG,-0.04
3,TTATTCACGTGTTACG,0.24
4,TTCATCACGTGTTCGG,0.07
5,TTGTGCACGTGCACGG,-0.17
6,TTGCGCACGTGATTGT,0.05
7,TTGCGCACGTGAGTTG,0.09
8,TTTGGCACGTGGTCTC,-0.22
9,GTGTGCACGTGCTAGT,-0.12
10,GGTGTCACGTGTGTGT,0.14
11,AATGTCACGTGCCGGT,0.17
12,TTTCGCACGTGTGATA,0
13,AGAAGCACGTGATGGG,0.14
14,TGTGGCACGTGTGTAG,-0.04
15,AGGAGCACGTGTGGCG,-0.01
16,ATATTCACGTGAAGGG,0.42
17,TATTTCACGTGGTAGA,0.29
18,GGCGTCACGTGTCGAG,0.16
19,TGAAGCACGTGGTTAA,-0.14
20,ATAGTCACGTGAAATA,0.37
21,TGAAGCACGTGGTGCT,-0.1
22,GTAGTCACGTGTGTAT,0.19
